Data taken from patent US20040077540A1, “Compositions and methods for modulating physiology of epithelial junctional adhesion molecules for enhanced mucosal delivery of therapeutic compounds” (Nastech Pharmaceutical Company Inc., priority 2002, published 2004).
Part of at least one peptide drawing is inferred or uncertain, most often the ends. Some entries repeat one wording, which the source may state once for all of them. Where a SMILES comes first, the peptide text is derived from it. Where no end group is shown, it is not given here.

What was measured:
[1] = test system: EpiAirway™ Cell Membrane (mucosal epithelial cell layer); test: Permeation kinetics of interferon-β across EpiAirway Cell Membrane by ELISA; type: cell-based; conditions: peptide 1.0 mM with interferon-β (60 MIU; 300 μg); compared to control
[2] = test system: EpiAirway™ Cell Membrane (mucosal epithelial cell layer); test: Transepithelial electrical resistance (TER) assay in EpiAirway Cell Membrane; type: cell-based; conditions: for Average TER Value: permeabilizing peptide 1.0 mM on EpiAirway Cell Membrane, each group of lines has its own CONTROL; for TER % of Control: permeabilizing peptide 1.0 mM, control normalized to 100, decrease = increased permeability
Description: The EpiAirway™ system was developed by MatTek Corp (Ashland, Mass.) as a model of the pseudostratified epithelium lining the respiratory tract. The epithelial cells are grown on porous membrane-bottomed cell culture inserts at an air-liquid interface, which results in differentiation of the cells to a highly polarized morphology. The apical surface is ciliated with a microvillous ultrastructure and the epithelium produces mucus (the presence of mucin has been confirmed by immunoblotting). The inserts have a diameter of 0.875 cm, providing a surface area of 0.6 cm^2. The cells are plated onto the inserts at the factory approximately three weeks before shipping. One “kit” consists of 24 units.
A. On arrival, the units are placed onto sterile supports in 6-well microplates. Each well receives 5 mL of proprietary culture medium. This DMEM-based medium is serum free but is supplemented with epidermal growth factor and other factors. […] The 5 mL volume is just sufficient to provide contact to the bottoms of the units on their stands, but the apical surface of the epithelium is allowed to remain in direct contact with air. Sterile tweezers are used in this step and in all subsequent steps involving transfer of units to liquid-containing wells to ensure that no air is trapped between the bottoms of the units and the medium.
B. The units in their plates are maintained at 37° C. in an incubator in an atmosphere of 5% CO2 in air for 24 hours. At the end of this time the medium is replaced with fresh medium and the units are returned to the incubator for another 24 hours.
A. A “kit” of 24 EpiAirway™ units can routinely be employed for evaluating five different formulations, each of which is applied to quadruplicate wells. Each well is employed for determination of permeation kinetics (4 time points), transepithelial electrical resistance (TER), mitochondrial reductase activity as measured by MTT reduction, and cytolysis as measured by release of LDH. An additional set of wells is employed as controls, which are sham treated during determination of permeation kinetics, but are otherwise handled identically to the test sample-containing units for determinations of transepithelial resistance and viability. The determinations on the controls are routinely also made on quadruplicate units, but occasionally we have employed triplicate units for the controls and have dedicated the remaining […] units in the kit to measurements of transepithelial resistance and viability on untreated units or we have frozen and thawed the units for determinations of total LDH levels to serve as a reference for 100% cytolysis.
A. Respiratory airway epithelial cells form tight junctions in vivo as well as in vitro, and thereby restrict the flow of solutes across the tissue. These junctions confer a transepithelial resistance of several hundred ohms×cm^2 in excised airway tissues. In the MatTek EpiAirway™ units, the transepithelial electrical resistance (TER) is reported by the manufacturer to be routinely around 1000 ohms×cm^2. […] The porous membrane-bottomed units without cells, conversely, provide only minimal transmembrane resistance (approximately 5-20 ohms×cm^2).
B. Accurate determinations of TER require that the electrodes of the ohmmeter be positioned over a significant surface area above and below the membrane, and that the distance of the electrodes from the membrane be reproducibly controlled. The method for TER determination recommended by MatTek and employed for all experiments herein employs an “EVOM”™ epithelial voltohmmeter and an “ENDOHM”™ tissue resistance measurement chamber from World Precision Instruments, Inc., Sarasota, Fla.
C. The chamber is initially filled with Dulbecco's phosphate buffered saline (PBS) for at least 20 minutes prior to TER determinations in order to equilibrate the electrodes.
D. Determinations of TER are made with 1.5 mL of PBS in the chamber and 350 μL of PBS in the membrane-bottomed unit being measured. […]

Row | Compound | increase in permeation of the biologically active agent across EpiAirway Cell Membrane, ELISA [1] | Average TER Value [2] [ohms-cm^2] | TER % of Control [2] [%]
1 | YAGDNIVTAQ [NP-17] | significant increase | 307 ± 34 | 83.0
2 | VVPEAQKREM [NP-33] | significant increase | 315 ± 50 | 62.4
3 | GILRDFYSPL [NP-27] | significant increase | 260 ± 13 | 51.5
4 | NTIIRDFYNP [NP-10] | significant increase | 260 ± 66 | 84.4
5 | CC[C@H](C)[C@H](N)C(=O)N[C@H](C(=O)N[C@@H](C)C(=O)N[C@@H](CO)C(=O)O)[C@@H](C)O [NP-D, ITAS] (H-ITAS-OH) | significant increase | 534 ± 94 | 74.8
6 | VKLSCAY [NP-B, VKLSCAY] | significant increase | 417 ± 64 | 58.4
7 | MTPVNARYEF [NP-28] | significant increase | 381 ± 122 | 75.4
8 | ALCNQFYTP [NP-25] | significant increase | 304 ± 41 | 66.5
9 | GSLYGSQIY [NP-23] | significant increase | 298 ± 56 | 65.2
10 | CC[C@H](C)[C@H](NC(=O)[C@H](CCCNC(=N)N)NC(=O)[C@@H](N)C(C)C)C(=O)N1CCC[C@H]1C(=O)O [NP-A, VRIP] (H-VRIP-OH) | significant increase | 339 ± 105 | 47.5
11 | NIIQDFYNPL [NP-31] | significant increase | 320 ± 60 | 63.4
12 | VPDSMKFEIG [NP-30] | significant increase | 374 ± 52 | 74.1
13 | CC(C)[C@H](NC(=O)[C@@H](N)CO)C(=O)N[C@H](C(=O)N[C@@H](CCCNC(=N)N)C(=O)O)[C@@H](C)O [NP-E, SVTR] (H-SVTR-OH) | significant increase | 568 ± 30 | 79.6
14 | GFSLGLWMEC [NP-42] | significant increase | 266 ± 92 | 76.9
15 | GVNPTAQSS [NP-22] | significant increase | 297 ± 40 | 65.0
16 | EDTGTYTCM [NP-8] | significant increase | 254 ± 20 | 82.5
17 | VPVSQKYELG [NP-32] | significant increase | 441 ± 32 | 87.3
18 | DIYSTLLGLP [NP-41] | significant increase | 263 ± 142 | 76.0
19 | TGITFKSVT [NP-C] | significant increase | 558 ± 113 | 78.2
20 | VASGQKREMG [NP-29] | significant increase | 418 ± 112 | 82.8
21 | AATGLYVDQ [NP-24] | significant increase | 306 ± 58 | 67.0
22 | GFSSPRVEW [NP-21] | significant increase | 387 ± 20 | 76.6
